PubChem BioAssay AID624417 (National Center for Advancing Translational Sciences (NCATS), 2012)
In all, about 410,000 compounds went through this assay and about 6,400 (1.6%) were called active. The shares of active, inactive and inconclusive entries below differ from those in the screen. Calls come from the whole dose curve; as a rule, active = well fitted inhibition curve with a large enough effect; inconclusive = small, poorly fitted or top-dose-only effect; inactive = no such curve, though single readings can be large or run the other way. Potencies of inconclusive entries are left out as doubtful fits.

What follows are molecules tested against Glucagon-like peptide 1 receptor (Homo sapiens) (UniProt P43220) (assay: qHTS of GLP-1 Receptor Inverse Agonists (Inhibition Mode)). Details: HEK293 GLP-1R CRE-luciferase, luminescence, 24 h, GLP-1R form is constitutively active; activity change, negative = inhibition: at 38.3 µM (top of the series) unless noted.
UniProt P43220, sequence (P43220 whole entry, looked up): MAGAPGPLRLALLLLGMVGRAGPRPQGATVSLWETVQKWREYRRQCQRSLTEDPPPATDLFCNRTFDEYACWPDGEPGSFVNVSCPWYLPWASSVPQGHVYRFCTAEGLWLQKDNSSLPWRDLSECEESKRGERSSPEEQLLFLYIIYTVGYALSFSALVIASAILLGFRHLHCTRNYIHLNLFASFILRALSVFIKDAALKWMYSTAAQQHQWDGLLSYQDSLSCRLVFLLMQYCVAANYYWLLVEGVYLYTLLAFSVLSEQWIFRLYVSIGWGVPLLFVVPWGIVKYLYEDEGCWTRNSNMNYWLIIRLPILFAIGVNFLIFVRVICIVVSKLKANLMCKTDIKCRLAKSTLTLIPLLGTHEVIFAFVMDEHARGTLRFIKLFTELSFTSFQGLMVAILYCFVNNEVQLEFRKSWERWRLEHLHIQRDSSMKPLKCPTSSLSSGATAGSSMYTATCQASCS
In short: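 HEK293 cells stably co-expressing constitutively active GLP-1R and a cAMP-responsive luciferase reporter were seeded in DMEM with 10% Nu serum, given compounds after 12 h, and incubated 24 h at 37 deg C. Luminescence was then read.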
% is set by controls: 0 for no effect and ±100 for the full control effect; potency is the fitted concentration of half-maximal effect; tags give direction and shape of the fitted curve.
Note: nearly all actives have a fitted effect of over 55% in size.

| Structure (SMILES) | activity change, negative = inhibition | Potency |
| --- | --- | --- |
| OC(CNCc1ccco1)Cn1c2ccccc2c2ccccc21 (stereo not drawn) | inactive: 0% |  |
| CC(C)c1ccc([C@@H]2O[C@H](CCc3ccccc3)Cc3[nH][nH]c(=O)c32)cc1 |  | inconclusive [inhibitor, single point] |
| COc1cc2c(cc1OC)CN(C(=S)Nc1ccc(OC(F)F)cc1)CC2 |  | inconclusive [inhibitor, partial curve] |
| COc1ccc(C(=O)CSc2nnc(-c3ccc(S(=O)(=O)N4CCOCC4)cc3)o2)cc1 | inactive: 31.5% |  |
| CCOC(=O)c1cc(-c2cccc(C(F)(F)F)c2)nc2nc(SC)[nH]c(=O)c12 | inactive: 16.7% |  |
| CCOc1ccc(C(=O)NCCc2csc(-c3cccnc3)n2)cc1 | inactive: -13.5% |  |
| CCN(CC)S(=O)(=O)c1ccc2c(c1)N(CC(=O)NCCCN1CCN(c3cc(C)ccc3C)CC1)C(=O)CO2 |  | inconclusive [inhibitor, partial curve, poor fit] |
| O=C(Cn1c(=O)n(-c2ccc(F)c(Cl)c2)c(=O)c2sc3ccccc3c21)NC1CCCCC1 | inactive: 4.6% |  |
| Cc1nc(NS(=O)(=O)c2ccc(Br)cc2)c2c3c(sc2n1)CCC3 |  | inconclusive [inhibitor, partial curve, poor fit] |
| COc1ccc(Cn2cc(CN3CCc4onc(-c5ccc(Br)cc5)c4C3=O)nn2)cc1 |  | inconclusive [inhibitor, single point] |
| COc1ccccc1[C@@H]1C(c2ccc(F)cc2)=NN(c2ccccc2)[C@H]1C(=O)N1CCOC1=O |  | inconclusive [inhibitor, partial curve, poor fit] |
| COc1cc([N+](=O)[O-])cc(/C=N/NC(=O)c2cc(-c3ccccc3)nc3ccccc23)c1O |  | inconclusive [inhibitor, partial curve, poor fit] |
| OC(COCc1ccco1)CN1CCN(C(c2ccccc2)c2ccccc2)CC1 (stereo not drawn) |  | inconclusive [inhibitor, partial curve, poor fit] |
| Cc1ccc(OCCCCn2nnc3sc4c(c3c2=O)CCC(C)C4)cc1 (stereo not drawn) | inactive: 7.62% |  |
| COc1cccc(N(CC(=O)NCCN2CCOCC2)S(=O)(=O)c2ccccc2)c1 | inactive: -11% |  |
| CC1CCC(C(C)C)C(OCC(O)CNC(C)C)C1 (stereo not drawn) |  | inconclusive [inhibitor, single point] |
| O=C(CCNc1cccc(F)c1)c1cc2ccccc2o1 |  | inconclusive [inhibitor, single point] |
| CCOC(CCn1c(SCc2ccc([N+](=O)[O-])cc2)nc2ccccc2c1=O)OCC |  | inconclusive [inhibitor, single point] |
| Cc1ccccc1NC(=O)Nc1nc(C(N)C2CCCCC2)cs1 (stereo not drawn) |  | inconclusive [inhibitor, single point] |
| CN(C)C(=S)NC1CCS(=O)(=O)C1 (stereo not drawn) | inactive: 18.4% |  |
| CCOC(=O)c1sc(Nc2cccc(Cl)c2)nc1C |  | inconclusive [inhibitor, single point] |
| COc1cccc(NC(=O)C2CCN(S(=O)(=O)c3c(C)noc3/C=C/c3cccs3)CC2)c1 |  | inconclusive [inhibitor, single point] |

| Structure (SMILES) | activity change, negative = inhibition | Potency |
| --- | --- | --- |
| CCCCC(=O)N1C/C=C\[C@H](c2ccc(OC)cc2)N(Cc2ccc(F)cc2)C(=O)[C@@H]1C |  | inconclusive [inhibitor, single point] |
| COC(=O)c1[nH]c2ccc(C)cc2c1NC(=O)CN1CCN(C(=O)c2ccccc2)CC1 | inactive: -31.7% |  |
| CC(C)Oc1ccc(CNC(=O)c2ccc3c(c2)N(C)C(=O)C2CCCCN32)cc1 (stereo not drawn) | inactive: -26.2% |  |
| CCCCN(C)C(=O)C1CCN(Cc2ccccn2)CC1 | inactive: -6.28% |  |
| Cc1ccc(N2CC(NC(=O)C3CCCC3)CC2=O)cc1C (stereo not drawn) | inactive: 6.76% |  |
| Cc1ccc(-n2nnnc2SCC(=O)NCC2(N3CCOCC3)CCCCC2)c(C)c1 |  | inconclusive [inhibitor, partial curve, poor fit] |
| Cc1ccsc1-c1cc2nc(NCCCN(C)C)n(C)c(=O)c2s1 |  | inconclusive [inhibitor, partial curve, poor fit] |
| CN(c1ccccc1)S(=O)(=O)c1cccc(NC(=O)Cc2c(F)cccc2Cl)c1 |  | active: 7.94 µM |
| COc1ccc(N2CCN(CC(O)COc3ccc(F)cc3)CC2)cc1 (stereo not drawn) |  | inconclusive [inhibitor, single point] |
| COc1ccc(-c2ccc3c(c2)S(=O)(=O)c2cccc(C(=O)N4CCN(C5CCCCC5)CC4)c2C3=O)cc1OC | inactive: 7.98% |  |
| CCOc1cccc2sc(N(CCN(C)C)C(=O)c3ccc4ccccc4c3)nc12 |  | inconclusive [inhibitor, partial curve] |
| CCN(C(=O)c1cccn(Cc2cccc(Cl)c2)c1=O)c1ccccc1 | inactive: 14.8% |  |
| CCOC(=O)N1CCc2c(sc(NCc3cccc(F)c3)c2C(=O)Nc2ccc(OCC)cc2)C1 | inactive: -22.2% |  |
| CC1=CCC2C(=O)N(c3ccc(Br)cc3C)C(=O)C2C1 (stereo not drawn) |  | inconclusive [inhibitor, single point] |
| COc1ccc(-c2cc(C(F)(F)F)nc(N3CCN(C)CC3)n2)cc1OC |  | inconclusive [inhibitor, partial curve] |
| CC1(C)CC2CC(C)(CN2C(=O)c2ccc([N+](=O)[O-])cc2[N+](=O)[O-])C1 (stereo not drawn) | inactive: 1.82% |  |
| O=C(Nc1nnc(-c2cccs2)o1)c1cccc(C(F)(F)F)c1 |  | inconclusive [inhibitor, single point] |
| Cc1ccc(-c2nc(Cn3c(SCc4ccc(F)cc4)nc4cccnc43)c(C)o2)cc1 |  | inconclusive [inhibitor, full curve, poor fit] |
| COc1cc(C(=O)NC2CCN(C)CC2)ccc1Nc1ncc2c(n1)N(C1CCCC1)CCC(=O)N2C(C)C |  | inconclusive [inhibitor, single point] |
| CC(C)(C)c1nnc(N/N=C/c2ccccc2O)n(N)c1=O |  | inconclusive [inhibitor, full curve, poor fit] |
| COc1ccc(-c2nnc(SCC(=O)Oc3cc(C)ccc3C)o2)cc1 | inactive: 3.09% |  |
